We go through 2 molecules from patent publication US20200239541A1 (XYPHOS BIOSCIENCES, published 2020).

Positions count from the first letter of the chain named.

Test in all cases: ELISA, ligand-Fc coated, biotinylated NKG2D titrated
(In general: In an ELISA, binding on a coated surface is turned into a signal by an enzyme label.)

The target of experiment [1] is T1, His-avitag natural NKG2D ectodomain, biotinylated (human).
T1 construct: also called natural form of the ectodomain of NKG2D
T1 chain: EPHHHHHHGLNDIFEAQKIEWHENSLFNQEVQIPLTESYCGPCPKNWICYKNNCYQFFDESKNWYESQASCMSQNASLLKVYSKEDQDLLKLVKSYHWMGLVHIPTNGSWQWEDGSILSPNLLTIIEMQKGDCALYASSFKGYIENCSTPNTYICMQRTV
How it is done: (§1) In addition to purifying the above 3 Fc-fusion proteins NKG2D ligand-Fc fusion proteins MICB-Fc, ULBP1-Fc, ULBP2-Fc, ULBP3-Fc, and ULBP4-Fc were purchased from R&D Systems, Inc. (Minneapolis, Minn.). Binding of the different α1-α2 domain-Fc fusions to both natural and non-natural NKG2D ectodomain proteins was analyzed using a plate-based ELISA method. All of the natural and non-natural α1-α2 domain-Fc fusions were coated overnight at 4° C. onto separate wells of Maxisorp 96 well plates using a coating concentration of 2 μg/ml in phosphate-buffered saline (PBS). The plates were washed 3-times in PBS/0.05% Tween20 at 20-22° C., and blocked with 0.5% bovine serum albumin for 2 hours. The biotinylated natural and non-natural NKG2D receptor proteins were titrated against the plate-bound NKG2D ligands for 2 hours at 20-22° C., washed 3 times with PBS/0.05% Tween20 at 20-22° C., and the bound NKG2D proteins subsequently detected using a streptavidin-HRP secondary detection step and developed with 1-Step Ultra TMB Elisa.

The target in experiment [2] is T2, Y152A mutant NKG2D ectodomain (His-avitag, biotinylated) (human).
T2 construct: also called Y152A non-natural NKG2D receptor; not shown: N-terminal His-avitag
T2 chain: T1 chain with Y96A
As to the method:
as §1

Experiment [3] has as its target T3, Y199A mutant NKG2D ectodomain (His-avitag, biotinylated) (human).
T3 construct: not shown: N-terminal His-avitag
T3 chain: T1 chain with Y143A
How it is done:
as §1

Experiment [4] addresses T4, double Y152A plus Y199A mutant NKG2D ectodomain (His-avitag, biotinylated) (human).
T4 construct: not shown: N-terminal His-avitag
T4 chain: T1 chain with Y96A, Y143A
How it is done:
as §1

B1: MICwed-Fc (Fc fusion)
chain: EPHSLRYNLTVLSWDGSVQSGFLTEVHLDGQPFLRCDRQKCRAKPQGQWAEDVLGNKTWDRETRDLTGWGKDLRMTLAHIKDQKEGLHSLQEIRVCEIHEDNSTRSSQHFYYDGELFLSQNLETKEWTMPQSSRAQTLAMNVRNFLKEDAMETDTHYHAMHADCLQELRRYLKSGVVLRRTVPPMVNVTRSEASEGNITVTCRASGFYPWNITLSWRQDGVSLSHDTQQWGDVLPDGNGTYQTWVATRISQGEEQRFTCYMEHSGNHSTHPVPSGKIEGRM[human IgG1 Fc left out here]
For the molecule B1, the binding result is “binds” in experiment [1], “no binding” in experiment [2], “no binding” in experiment [3] and “no binding” in experiment [4].

B2: MICv25-Fc (Fc fusion)
chain: B1 chain with K125L, H161R, Q166S
notes: also called DSM25 α1-α2-α3-Fc
Broadly, the EC50 is the concentration at which the effect is half-maximal. As for B2, in experiment [1], the response was half-maximal at 14 nM (EC50), the “fold better than MICwed” value is 8 fold and the “fold better than all natural α1-α2 domain ligands tested” value is over 100 fold. Besides, in experiment [2], the EC50 is 50 nM. Also, in experiment [3], the binding result is “no binding”. Besides, in experiment [4], the binding result is recorded as “no binding”.
